{
  "source": "PubChem BioAssay AID1345082",
  "about": "(National Center for Advancing Translational Sciences (NCATS), 2018)",
  "note": "“And” between values parts separate entries of the source, which are not always exact repeats. Equal values may be shown once. The campaign covered roughly 94,000 compounds. About 4,000 (4.3%) were called active. This list was built around the results that the source calls inconclusive (neither active nor inactive); the mix of calls is not that of the screen. The call rests on the fitted dose curve; in most records, active means well fitted inhibition curve with a large enough effect; inconclusive means small, poorly fitted or top-dose-only effect; inactive means no such curve, though single readings can be large or run the other way. Potencies of inconclusive entries are doubtful fits and often do not repeat. Potency means the concentration at half of the fitted maximal effect; tags describe the fitted curve by direction and shape.",
  "data": [
    {"test": "Cytotoxic Profiling in NIH 3T3 Cell Line of Diverse Libraries Using Quantitative High-Throughput Screening; further: nearly all actives have a fitted effect of over 55% in size", "conditions": "NIH 3T3 viability, CellTiter-Glo ATP luminescence, 48-72 h; series mostly up to 96.7 µM", "outline": "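Luminescent ATP readout (CellTiter-Glo, 10 min RT) after 48 or 72 hr compound exposure of NIH 3T3 cells seeded at 400 cells/well in 1536-well format; quantitative HTS.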", "values": [
      {"smiles": "O=C(c1ccc(C(F)(F)F)cc1)N1CCCC(c2nn(-c3ccccc3)c(=O)[nH]2)C1", "note": "(stereo unspecified)", "Potency": "inconclusive: 44.7 µM [inhibitor, partial curve, poor fit]"},
      {"smiles": "COc1ccc(-n2nc(C3CCN(Cc4ccc(C)cc4)CC3)[nH]c2=O)cc1", "Potency": "inactive and inconclusive: 31.6 µM [inhibitor, full curve]"},
      {"smiles": "COc1ccc(C(=O)N2CCC(=O)N(C)C[C@H]3COc4cc(OC)ccc4[C@H]32)cc1", "Potency": "inconclusive: 79.4 µM [inhibitor, partial curve, poor fit]"},
      {"smiles": "Cc1ccc(C(=O)N2CCC3(CC2)NC(=O)N(c2ccccc2)N3)cc1C", "Potency": "inconclusive: 12.6 µM [inhibitor, full curve]"},
      {"smiles": "COCCN1Cc2ccc(Nc3cccnc3)nc2C(C)(C(=O)Nc2ccccc2C)C1", "note": "(stereo unspecified)", "Potency": "inconclusive: 70.8 µM [inhibitor, partial curve, poor fit]"},
      {"smiles": "CCOC(=O)C1(Cc2cccc(C(F)(F)F)c2)CCN(Cc2cc(C(C)C)n[nH]2)CC1", "Potency": "inconclusive: 35.5 µM [inhibitor, partial curve, poor fit]"},
      {"smiles": "O=[S+]([O-])(c1ccc(Br)cc1)c1nnn2c1nc(N1CCC(F)CC1)c1ccccc12", "Potency": "inactive"},
      {"smiles": "O=C1CCCN1Cc1noc(-c2cccc(Cl)c2)n1", "Potency": "inactive"},
      {"smiles": "c1ccc(-c2nc(-c3ccncc3)no2)c(OC2CCNC2)c1", "note": "(stereo unspecified)", "Potency": "inconclusive: 25.1 µM [inhibitor, partial curve, poor fit]"},
      {"smiles": "CC(C)(C)C(=O)N1CCCC(c2nn(-c3cccc(Cl)c3)c(=O)[nH]2)C1", "note": "(stereo unspecified)", "Potency": "inconclusive: 44.7 µM [inhibitor, partial curve, poor fit]"},
      {"smiles": "CC(C)CCNC[C@H]1O[C@H](Cc2cc(CN3CCCCC3)on2)CC[C@@H]1O", "Potency": "inconclusive: 79.4 µM [inhibitor, partial curve]"},
      {"smiles": "CCc1nc2c(c(-c3ccc(Cl)cc3)n1)CCN(Cc1cccn1C)CC2", "Potency": "inconclusive: 50.1 µM [inhibitor, partial curve, poor fit]"},
      {"smiles": "Cc1cc(Cn2cc3c4c(cccc42)[C@H](CC(C)C)N[C@H](C(=O)NCCN2CCOCC2)C3)no1", "Potency": "inconclusive: 70.8 µM [inhibitor, single point]"},
      {"smiles": "CC(C)(C)c1ccnc(N[C@H]2CO[C@H]3[C@@H]2OC[C@H]3OC(=O)Nc2cccc(C(F)(F)F)c2)n1", "Potency": "inconclusive: 39.8 µM [inhibitor, full curve, poor fit]"},
      {"smiles": "O=C(c1cccc(Cl)c1)N1CCN(Cc2ccccc2-c2ccccc2F)CC1", "Potency": "active: 44.7 µM"},
      {"smiles": "COCCN1Cc2ccc(Nc3ccc(OC)cc3)nc2C(C)(C(=O)NC2CCC2)C1", "note": "(stereo unspecified)", "Potency": "inconclusive: 56.2 µM [inhibitor, partial curve, poor fit]"}
    ]}
  ]
}
